Results: the supplement of paper PMC11876631
Changes are numbered by the printed parent chain. Names may count otherwise. ± gives the standard deviation of the averaged measurements. Laboratory Escherichia coli strains with one amino-acid change in an essential protein, pooled on minimal glucose agar with carbenicillin or gentamicin at twice the control MIC (plus kanamycin and chloramphenicol for the plasmids), 48 h. Fold change of barcode share against drug-free plates; higher = less susceptible. Active = above 20 in both replicates (the paper's putatively resistant). '<' = one read or none on drug, '>' = one read or none on a drug-free plate. Shares are relative, so most strains fall below 1 when a few take over. Listed are strains with at least 15 reads on both drug-free plates, and hits; most hits rest on fewer reference reads. Replicate rank correlation about 0.5. Edits are read from barcodes.

B1: aspS F393Q (protein)
chain: MRTEYCGQLRLSHVGQQVTLCGWVNRRRDLGSLIFIDMRDREGIVQVFFDPDRADALKLASELRNEFCIQVTGTVRARDEKNINRDMATGEIEVLASSLTIINRADVLPLDSNHVNTEEARLKYRYLDLRRPEMAQRLKTRAKITSLVRRFMDDHGFLDIETPMLTKATPEGARDYLVPSRVHKGKFYALPQSPQLFKQLLMMSGFDRYYQIVKCFRDEDLRADRQPEFTQIDVETSFMTAPQVREVMEALVRHLWLEVKGVDLGDFPVMTFAEAERRYGSDKPDLRNPMELTDVADLLKSVEFAVFAGPANDPKGRVAALRVPGGASLTRKQIDEYGNFVKIYGAKGLAYIKVNERAKGLEGINSPVAKFLNAEIIEDILDRTAAQDGDMIQFGADNKKIVADAMGALRLKVGKDLGLTDESKWAPLWVIDFPMFEDDGEGGLTAMHHPFTSPKDMTAAELKAAPENAVANAYDMVINGYEVGGGSVRIHNGDMQQTVFGILGINEEEQREKFGFLLDALKYGTPPHAGLAFGLDRLTMLLTGTDNIRDVIAFPKTTAAACLMTEAPSFANPTALAELSIQVVKKAENN
B2: obgE L154A (protein)
chain: MKFVDEASILVVAGDGGNGCVSFRREKYIPKGGPDGGDGGDGGDVWMEADENLNTLIDYRFEKSFRAERGQNGASRDCTGKRGKDVTIKVPVGTRVIDQGTGETMGDMTKHGQRLLVAKGGWHGLGNTRFKSSVNRTPRQKTNGTPGDKRELLAELMLLADVGMLGMPNAGKSTFIRAVSAAKPKVADYPFTTLVPSLGVVRMDNEKSFVVADIPGLIEGAAEGAGLGIRFLKHLERCRVLLHLIDIDPIDGTDPVENARIIISELEKYSQDLATKPRWLVFNKIDLLDKVEAEEKAKAIAEALGWEDKYYLISAASGLGVKDLCWDVMTFIIENPVVQAEEAKQPEKVEFMWDDYHRQQLEEIAEEDDEDWDDDWDEDDEEGVEFIYKR
B3: orn L93A (protein)
chain: MSANENNLIWIDLEMTGLDPERDRIIEIATLVTDANLNILAEGPTIAVHQSDEQLALMDDWNVRTHTASGLVERVKASTMGDREAELATLEFAKQWVPAGKSPICGNSIGQDRRFLFKYMPELEAYFHYRYLDVSTLKELARRWKPEILDGFTKQGTHQAMDDIRESVAELAYYREHFIKL
B4: orn L93W (protein)
chain: B3 chain with A93W
B5: orn L93D (protein)
chain: B3 chain with A93D
B6: orn I164A (protein)
chain: B3 chain with A93L, I164A
B7: orn F115W (protein)
chain: B3 chain with A93L, F115W
B8: orn L171A (protein)
chain: B3 chain with A93L, L171A
B9: orn L171W (protein)
chain: B3 chain with A93L, L171W
B10: orn L171Q (protein)
chain: B3 chain with A93L, L171Q
B11: orn L171P (protein)
chain: B3 chain with A93L, L171P
B12: pabB L57A (protein)
chain: MKTLSPAVITLLWRQDAAEFYFSRLSHLPWAMLLHSGYADHPYSRFDIVVAEPICTATTFGKETVVSESEKRTTTTDDPLQVLQQVLDRADIRPTHNEDLPFQGGALGLFGYDLGRRFESLPEIAEQDIVLPDMAVGIYDWALIVDHQRHTVSLLSHNDVNARRAWLESQQFSPQEDFTLTSDWQSNMTREQYGEKFRQVQEYLHSGDCYQVNLAQRFHATYSGDEWQAFLQLNQANRAPFSAFLRLEQGAILSLSPERFILCDNSEIQTRPIKGTLPRLPDPQEDSKQAVKLANSAKDRAENLMIVDLMRNDIGRVAVAGSVKVPELFVVEPFPAVHHLVSTITAQLPEQLHASDLLRAAFPGGSITGAPKVRAMEIIDELEPQRRNAWCGSIGYLSFCGNMDTSITIRTLTAINGQIFCSAGGGIVADSQEEAEYQETFDKVNRILKQLEK
B13: pabB L57W (protein)
chain: B12 chain with A57W
B14: pabB L57Q (protein)
chain: B12 chain with A57Q
B15: pabB V341A (protein)
chain: B12 chain with A57L, V341A

Target: Escherichia coli (laboratory strain)
Test: barcode share on antibiotic plates over drug-free plates; higher = less susceptible
Experimental: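 A pool of E. coli strains, each edited to carry one amino-acid change in an essential protein, was grown for 48 h on minimal glucose agar with or without antibiotic; strain barcodes were sequenced; mean of two replicates.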

[1] = antibiotic: carbenicillin, 2× MIC (3.1 µg/mL)
[2] = antibiotic: gentamicin, 2× MIC (MIC 0.45 µg/mL)

Protein	fold change of barcode share [1]	fold change of barcode share [2]
B1	0.237 ± 0.093	
B2	0.303 ± 0.047	0.035 ± 0.048
B3	0.211 ± 0.069	0.0115 ± 0.0063
B4	0.256 ± 0.052	< 0.00519
B5	0.214 ± 0.036	
B6	0.375 ± 0.033	0.0151 ± 0.0052
B7	0.322 ± 0.093	< 0.00276
B8	0.45 ± 0.3	0.00462 ± 0.0012
B9	0.433 ± 0.14	< 0.0138
B10	0.36 ± 0.032	0.00619 ± 0.0045
B11	0.339 ± 0.19	< 0.00457
B12	0.845 ± 0.39	0.0278 ± 0.029
B13	0.89 ± 0.12	< 0.019
B14	1.04 ± 0.6	< 0.0208
B15	0.619 ± 0.32	0.0101 ± 0.00035
